Experimental data from the supplement of paper PMC8728848.
The other results are listed elsewhere or left out.

Assays:
Experiment in all cases: glycan array binding signal (z-score within array); higher = stronger binding
Settings in all cases: glycan notation: IUPAC condensed, linker removed
[1] = target: Neu5Ac(a2-3)Gal(b1-3)[Fuc(a1-4)]GlcNAc(b1-3)Gal(b1-3)[Fuc(a1-4)]GlcNAc
Method in brief: (§1)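 The binding signal is a Z-score computed within each array and averaged over linkers. Arrays of the same protein sequence at different concentrations or buffers were also averaged together. Data originate from 3228 arrays in the Consortium for Functional Glycomics database, kept only where the protein sequence was available.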

[2] = target: Neu5Ac(a2-3)Gal(b1-3)[Fuc(a1-4)]GlcNAc(b1-3)Gal(b1-4)[Fuc(a1-3)]GlcNAc
Method in brief: as §1

[3] = target: Neu5Ac(a2-3)Gal(b1-3)[Neu5Ac(a2-3)Gal(b1-4)]GlcNAc
Method in brief: as §1

[4] = target: Neu5Ac(a2-3)Gal(b1-3)[Neu5Ac(a2-6)]GalNAc
Method in brief: as §1

Neu5Ac(a2-3)Gal(b1-4)Glc = target: Neu5Ac(a2-3)Gal(b1-4)Glc
Method in brief: as §1

[5] = target: Neu5Ac(a2-3)Gal(b1-4)GlcNAc
Method in brief: as §1

[6] = target: Neu5Ac(a2-3)Gal(b1-4)GlcNAc(b1-2)Man(a1-3)[GlcNAc(b1-2)Man(b1-4)GlcNAc(b1-2)Man(a1-6)]Man(b1-4)GlcNAc(b1-4)GlcNAc
Method in brief: as §1

[7] = target: Neu5Ac(a2-3)Gal(b1-4)GlcNAc(b1-2)Man(a1-3)[Neu5Ac(a2-6)Gal(b1-4)GlcNAc(b1-2)Man(a1-6)]Man(b1-4)GlcNAc(b1-4)GlcNAc
Method in brief: as §1

[8] = target: Neu5Ac(a2-3)Gal(b1-4)GlcNAc(b1-3)Gal
Method in brief: as §1

[9] = target: Neu5Ac(a2-3)Gal(b1-4)GlcNAc(b1-3)Gal(b1-3)GlcNAc
Method in brief: as §1

[10] = target: Neu5Ac(a2-3)Gal(b1-4)GlcNAc(b1-3)Gal(b1-4)GlcNAc
Method in brief: as §1

[11] = target: Neu5Ac(a2-3)Gal(b1-4)GlcNAc(b1-3)Gal(b1-4)GlcNAc(b1-3)Gal(b1-4)GlcNAc
Method in brief: as §1

[12] = target: Neu5Ac(a2-3)Gal(b1-4)GlcNAc(b1-3)Gal(b1-4)[Fuc(a1-3)]GlcNAc
Method in brief: as §1

[13] = target: Neu5Ac(a2-3)Gal(b1-4)GlcNAc(b1-3)GalNAc
Method in brief: as §1

[14] = target: Neu5Ac(a2-3)Gal(b1-4)GlcNAc(b1-6)[Gal(b1-3)]GalNAc
Method in brief: as §1

[15] = target: Neu5Ac(a2-3)Gal(b1-4)GlcNAc(b1-6)[Neu5Ac(a2-3)Gal(b1-3)]GalNAc
Method in brief: as §1

[16] = target: Neu5Ac(a2-3)Gal(b1-4)GlcNAc6S
Method in brief: as §1

[17] = target: Neu5Ac(a2-3)Gal(b1-4)[Fuc(a1-3)]GlcNAc
Method in brief: as §1

[18] = target: Neu5Ac(a2-3)Gal(b1-4)[Fuc(a1-3)]GlcNAc(b1-3)Gal
Method in brief: as §1

[19] = target: Neu5Ac(a2-3)Gal(b1-4)[Fuc(a1-3)]GlcNAc(b1-3)Gal(b1-4)GlcNAc
Method in brief: as §1

[20] = target: Neu5Ac(a2-3)Gal(b1-4)[Fuc(a1-3)]GlcNAc(b1-3)Gal(b1-4)[Fuc(a1-3)]GlcNAc(b1-3)Gal(b1-4)[Fuc(a1-3)]GlcNAc
Method in brief: as §1

[21] = target: Neu5Ac(a2-3)Gal(b1-4)[Fuc(a1-3)]GlcNAc(b1-3)GalNAc
Method in brief: as §1

[22] = target: Neu5Ac(a2-3)Gal(b1-4)[Fuc(a1-3)]GlcNAc(b1-6)[Gal(b1-3)]GalNAc
Method in brief: as §1

[23] = target: Neu5Ac(a2-3)Gal(b1-4)[Fuc(a1-3)]GlcNAc6S
Method in brief: as §1

[24] = target: Neu5Ac(a2-3)Gal6S(b1-4)GlcNAc
Method in brief: as §1

[25] = target: Neu5Ac(a2-3)Gal6S(b1-4)[Fuc(a1-3)]GlcNAc
Method in brief: as §1

Neu5Ac(a2-3)GalNAc = target: Neu5Ac(a2-3)GalNAc
Method in brief: as §1

[26] = target: Neu5Ac(a2-3)GalNAc(b1-4)GlcNAc
Method in brief: as §1

[27] = target: Neu5Ac(a2-3)[GalNAc(b1-4)]Gal(b1-4)Glc
Method in brief: as §1

[28] = target: Neu5Ac(a2-3)[GalNAc(b1-4)]Gal(b1-4)GlcNAc
Method in brief: as §1

[29] = target: Neu5Ac(a2-3)[GalNAc(b1-4)]Gal(b1-4)GlcNAc(b1-3)GalNAc
Method in brief: as §1

[30] = target: Neu5Ac(a2-3)[Neu5Ac(a2-6)]GalNAc
Method in brief: as §1

Neu5Ac(a2-6)Gal = target: Neu5Ac(a2-6)Gal
Method in brief: as §1

[31] = target: Neu5Ac(a2-6)Gal(b1-3)GlcNAc(b1-3)[Gal(b1-4)GlcNAc(b1-6)]Gal(b1-4)Glc
Method in brief: as §1

Neu5Ac(a2-6)Gal(b1-4)Glc = target: Neu5Ac(a2-6)Gal(b1-4)Glc
Method in brief: as §1

[32] = target: Neu5Ac(a2-6)Gal(b1-4)GlcNAc
Method in brief: as §1

[33] = target: Neu5Ac(a2-6)Gal(b1-4)GlcNAc(b1-2)Man(a1-3)Man(b1-4)GlcNAc(b1-4)GlcNAc
Method in brief: as §1

[34] = target: Neu5Ac(a2-6)Gal(b1-4)GlcNAc(b1-2)Man(a1-3)[Gal(b1-4)GlcNAc(b1-2)Man(a1-6)]Man(b1-4)GlcNAc(b1-4)GlcNAc
Method in brief: as §1

B1: SCA (Schizophyllum commune) (protein)
chain: MGIDQGVYLITNAGSGTAATLKDGYVKGWERIKGKEQLNQLWFVKSVKTSASDPGYAAFNLATNKVLDLEKGLADRGTPILGWDYHEGDNQHWVIKKQADGKYYKIQSVKTQTFVDLNNGGKDNGTKIQGWVGSWDETNSHQRWVFNQFSATGSRIKSILDTHPKIHGKVIVEWPDRIYFTPDQYIFEAIWAKTGLADIKPRDPLFQSEAYEKVFKGWVVSRAQEIIKVDGFDILVGSLSLVEKSTQKIKVLDVSVRTSDDKSPDLSQIVFFDPESGRTLVDIPEGYEVNSVII
Question: B1 was tested. Which “glycan array binding signal (z-score)” value [1] did it give?
Answer: Its value is -0.151.

Question: What about the “glycan array binding signal (z-score)” value [2] of the same binder?
Answer: The value was -0.16.

Question: And the “glycan array binding signal (z-score)” value [3]?
Answer: Its value is -0.16.

Question: What about the “glycan array binding signal (z-score)” value [4] of the same binder?
Answer: The value was 0.114.

Question: What about the “glycan array binding signal (z-score)” value (Neu5Ac(a2-3)Gal(b1-4)Glc) of the same binder?
Answer: The value was -0.159.

Question: And the “glycan array binding signal (z-score)” value [5]?
Answer: Its value is -0.157.

Question: What about the “glycan array binding signal (z-score)” value [6] of the same binder?
Answer: Its value is -0.13.

Question: What about the “glycan array binding signal (z-score)” value [7] of the same binder?
Answer: Its value is -0.162.

Question: And the “glycan array binding signal (z-score)” value [8]?
Answer: Its value is -0.162.

Question: And the “glycan array binding signal (z-score)” value [9]?
Answer: The value was -0.157.

Question: What about the “glycan array binding signal (z-score)” value [10] of the same binder?
Answer: The value was -0.16.

Question: And the “glycan array binding signal (z-score)” value [11]?
Answer: Its value is -0.152.

Question: And the “glycan array binding signal (z-score)” value [12]?
Answer: The value was -0.164.

Question: What about the “glycan array binding signal (z-score)” value [13] of the same binder?
Answer: Its value is -0.157.

Question: And the “glycan array binding signal (z-score)” value [14]?
Answer: The value was -0.162.

Question: And the “glycan array binding signal (z-score)” value [15]?
Answer: Its value is -0.157.

Question: What about the “glycan array binding signal (z-score)” value [16] of the same binder?
Answer: The value was -0.161.

Question: And the “glycan array binding signal (z-score)” value [17]?
Answer: The value was -0.163.

Question: And the “glycan array binding signal (z-score)” value [18]?
Answer: The value was -0.164.

Question: And the “glycan array binding signal (z-score)” value [19]?
Answer: Its value is -0.159.

Question: And the “glycan array binding signal (z-score)” value [20]?
Answer: The value was -0.154.

Question: What about the “glycan array binding signal (z-score)” value [21] of the same binder?
Answer: The value was -0.15.

Question: And the “glycan array binding signal (z-score)” value [22]?
Answer: Its value is -0.159.

Question: And the “glycan array binding signal (z-score)” value [23]?
Answer: Its value is -0.158.

Question: And the “glycan array binding signal (z-score)” value [24]?
Answer: The value was -0.157.

Question: What about the “glycan array binding signal (z-score)” value [25] of the same binder?
Answer: The value was -0.162.

Question: What about the “glycan array binding signal (z-score)” value (Neu5Ac(a2-3)GalNAc) of the same binder?
Answer: The value was -0.16.

Question: And the “glycan array binding signal (z-score)” value [26]?
Answer: Its value is -0.162.

Question: What about the “glycan array binding signal (z-score)” value [27] of the same binder?
Answer: Its value is -0.156.

Question: And the “glycan array binding signal (z-score)” value [28]?
Answer: Its value is -0.162.

Question: What about the “glycan array binding signal (z-score)” value [29] of the same binder?
Answer: The value was -0.161.

Question: What about the “glycan array binding signal (z-score)” value [30] of the same binder?
Answer: The value was -0.159.

Question: What about the “glycan array binding signal (z-score)” value (Neu5Ac(a2-6)Gal) of the same binder?
Answer: Its value is -0.163.

Question: What about the “glycan array binding signal (z-score)” value [31] of the same binder?
Answer: Its value is -0.158.

Question: And the “glycan array binding signal (z-score)” value (Neu5Ac(a2-6)Gal(b1-4)Glc)?
Answer: The value was -0.161.

Question: What about the “glycan array binding signal (z-score)” value [32] of the same binder?
Answer: Its value is -0.162.

Question: What about the “glycan array binding signal (z-score)” value [33] of the same binder?
Answer: The value was -0.162.

Question: What about the “glycan array binding signal (z-score)” value [34] of the same binder?
Answer: Its value is -0.161.
